Assay results published in paper PMC4336329 (PLoS ONE, 2015).
Out of some 310,000 compounds screened, about 14,000 (4.5%) showed an effect of 50% or more. The effect is printed as a negative number. The list shows a part of the results.

These compounds were tested against human ether-à-go-go-related gene (hERG) potassium channel (human, UniProt Q12809) (assay: primary screen, population patch clamp on CHO cells stably expressing hERG).
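Also: peak tail current of the secondary pulse compared with the same well before compound.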

Chain of human ether-à-go-go-related gene (hERG) potassium channel (Q12809 whole entry, looked up): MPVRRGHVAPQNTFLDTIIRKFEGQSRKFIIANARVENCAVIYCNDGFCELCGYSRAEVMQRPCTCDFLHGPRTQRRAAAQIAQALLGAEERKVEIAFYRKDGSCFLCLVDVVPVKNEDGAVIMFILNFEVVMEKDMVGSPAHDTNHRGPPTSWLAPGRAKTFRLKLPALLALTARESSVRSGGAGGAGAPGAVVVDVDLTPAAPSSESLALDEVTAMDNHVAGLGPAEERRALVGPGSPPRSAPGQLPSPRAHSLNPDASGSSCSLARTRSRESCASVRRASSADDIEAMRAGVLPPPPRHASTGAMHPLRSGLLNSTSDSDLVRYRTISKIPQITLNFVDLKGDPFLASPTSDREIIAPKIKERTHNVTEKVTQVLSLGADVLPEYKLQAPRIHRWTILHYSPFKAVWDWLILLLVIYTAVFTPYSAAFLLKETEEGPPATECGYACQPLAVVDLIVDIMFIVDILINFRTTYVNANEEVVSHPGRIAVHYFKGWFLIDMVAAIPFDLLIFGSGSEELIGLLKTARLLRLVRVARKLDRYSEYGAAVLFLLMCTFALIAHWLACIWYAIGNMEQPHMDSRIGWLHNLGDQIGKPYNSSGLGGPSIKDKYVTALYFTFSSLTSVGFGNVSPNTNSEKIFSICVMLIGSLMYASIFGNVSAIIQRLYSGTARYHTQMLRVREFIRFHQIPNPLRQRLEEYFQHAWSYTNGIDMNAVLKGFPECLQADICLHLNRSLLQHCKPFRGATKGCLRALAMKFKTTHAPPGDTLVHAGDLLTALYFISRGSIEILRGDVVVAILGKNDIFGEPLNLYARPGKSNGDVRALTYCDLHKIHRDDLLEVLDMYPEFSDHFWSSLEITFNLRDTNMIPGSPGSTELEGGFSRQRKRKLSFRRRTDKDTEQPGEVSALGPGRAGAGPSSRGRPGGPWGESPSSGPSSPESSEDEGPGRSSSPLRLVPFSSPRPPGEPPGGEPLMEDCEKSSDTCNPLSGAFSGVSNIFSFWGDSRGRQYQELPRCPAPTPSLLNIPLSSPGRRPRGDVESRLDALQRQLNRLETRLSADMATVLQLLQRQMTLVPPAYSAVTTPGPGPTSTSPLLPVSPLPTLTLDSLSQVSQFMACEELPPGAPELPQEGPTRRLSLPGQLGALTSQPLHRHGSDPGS

Going from O=C(NCCc1c[nH]c2ccccc12)/C(=C/c1cccnc1)NC(=O)c1ccccc1 to COc1ccccc1C(=O)Nc1ccc(C(=O)c2ccccc2)cc1, the “hERG current change (%, negative = inhibition) at 10uM” value rises from -14.3% to 22.2%.

Going from COC(=O)c1cn(NC(=O)Cn2nc([N+](=O)[O-])c(Br)c2C)c(=O)c2ccccc12 to CCOC(=O)c1[nH]c2ccccc2c1NC(=O)c1ccc(Br)o1, the “hERG current change (%, negative = inhibition) at 10uM” value falls from 25.2% to -8.9%.

First: C=CCOc1ccc(CNC(C)(C)C)cc1OC.Cl
Second: COc1ccc(C(=O)Nc2nc(C)c(C)s2)cc1OC
The “hERG current change (%, negative = inhibition) at 10uM” value of the first is higher: -17% for the first, -22.6% for the second.

Going from CC1(C)Oc2ccc(C(=O)N3CCOCC3)cc2N(CC(=O)Nc2ccccc2)C1=O to O=C(COC(=O)C1=COCCO1)Nc1cccc(Oc2ccccc2)c1, the “hERG current change (%, negative = inhibition) at 10uM” value falls from -1.86% to -44%.

First: NS(=O)(=O)c1cccnc1Nc1cccc(Cl)c1Cl
Second: Cc1onc(-c2c(Cl)cccc2Cl)c1C(=O)NCc1cccs1
The “hERG current change (%, negative = inhibition) at 10uM” value of the first is higher: -3.35% for the first, -9.65% for the second.

First: N#CC1(NC(=O)COc2ccccc2[N+](=O)[O-])CCCCC1
Second: CC1(N2CCCCC2)C(=O)c2ccccc2C1=O
The “hERG current change (%, negative = inhibition) at 10uM” value of the first is lower: 3.83% for the first, 15.4% for the second.

Going from S=C(NCCC(c1ccccc1)c1ccccc1)Nc1cccc(Cl)c1 to O=C(Nc1ccccc1Cl)c1sccc1-c1ccccc1, the “hERG current change (%, negative = inhibition) at 10uM” value falls from 16.3% to -2.39%.

First: COc1ccc(Oc2nc(OC)cc(OC)n2)cc1
Second: COc1ccc(Oc2nc(-c3ccccn3)nc3ccccc23)cc1
The “hERG current change (%, negative = inhibition) at 10uM” value of the first is higher: 15.4% for the first, -31.9% for the second.

Compared with Cc1ccccc1OC(=O)CCC(=O)OCCCC(F)(F)C(F)(F)F, O=C(CCCC(=O)NCc1ccccc1)NCc1ccccc1 is lower in “hERG current change (%, negative = inhibition) at 10uM” value: 28.2% for the first, -3.55% for the second.

First: CC(C)c1nnc(NC(=O)CSc2ccccc2)s1
Second: Cc1cc(C)nc(SCC(=O)N2CCc3ccccc32)n1
The “hERG current change (%, negative = inhibition) at 10uM” value of the first is higher: 20.4% for the first, 11.7% for the second.

Compared with CCC(=O)N(Cc1cc2cc(OC)ccc2[nH]c1=O)c1cc(C)ccc1C, Cc1ccc(NC(=O)c2cccc(OCc3c(C)noc3C)c2)c(C)c1 is lower in “hERG current change (%, negative = inhibition) at 10uM” value: 5.17% for the first, -12.8% for the second.

Going from CC(C)c1cccc(C(C)C)c1NC(=O)COC(=O)c1ccc2c(c1)S(=O)(=O)c1ccccc1C2=O to Cc1cccc(C(=O)OCC(=O)Nc2ccccc2C(=O)NC2CC2)c1, the “hERG current change (%, negative = inhibition) at 10uM” value falls from 14.4% to 4.08%.

First: COC(=O)c1ccc(CSc2nc3c(cnn3-c3ccccc3)c(=O)[nH]2)o1
Second: COC(=O)c1ccc(CN(C)S(=O)(=O)c2ccc(C)cc2)o1
The “hERG current change (%, negative = inhibition) at 10uM” value of the first is higher: 4.11% for the first, -12.3% for the second.

Going from O=C1CCC(=O)N1c1ccc(NCCc2ccccc2F)c([N+](=O)[O-])c1 to O=c1c2ccccc2c(=O)n2n1Cc1ccccc1C2, the “hERG current change (%, negative = inhibition) at 10uM” value rises from 8.08% to 9.51%.

Compared with O=C(NCCN1CCCC1)c1ccc(Cn2c(=S)[nH]c3cc4c(cc3c2=O)OCO4)cc1, COc1ccc(S(=O)(=O)N2CCN(C(=O)CNC(=O)c3ccc4c(c3)OCO4)CC2)cc1 is higher in “hERG current change (%, negative = inhibition) at 10uM” value: -0.433% for the first, 15.4% for the second.

First: Cc1ccc2nc(SCC(=O)NCc3ccc(F)cc3)[nH]c2c1
Second: Cc1ccc(CNC(=O)Cn2ncn3cccc3c2=O)cc1
The “hERG current change (%, negative = inhibition) at 10uM” value of the first is lower: -10.9% for the first, 12.8% for the second.

First: CCOc1ccc(C(=O)Nc2cccc3cccnc23)cc1
Second: O=C(Nc1ccc(Cl)cn1)c1ccc(Oc2ccccc2)cc1
The “hERG current change (%, negative = inhibition) at 10uM” value of the first is higher: 16.7% for the first, 2.48% for the second.

Going from Cc1ccc(S(=O)(=O)N2C(=O)CCC2C(=O)Nn2cnnc2)cc1 (stereo not drawn) to CCOc1ccc(S(=O)(=O)N2CCC(C(=O)Nc3cccc(NC(C)=O)c3)CC2)cc1, the “hERG current change (%, negative = inhibition) at 10uM” value rises from 5.62% to 17.9%.

Compared with O=C(C1CCN(S(=O)(=O)c2cccs2)CC1)N1CCCCC1, O=C(C1CCN(S(=O)(=O)c2cnc[nH]2)CC1)N1CCN(c2ncccn2)CC1 is lower in “hERG current change (%, negative = inhibition) at 10uM” value: 6.43% for the first, 3.57% for the second.

Compared with Cc1nc2cc(S(=O)(=O)N(C)C)ccc2n1-c1ccccc1, CN(C)S(=O)(=O)c1ccc(Oc2ccccc2)cc1 is lower in “hERG current change (%, negative = inhibition) at 10uM” value: -0.127% for the first, -38.1% for the second.

Going from CCN(CC)CCn1c2c(c(SCC(=O)NCc3ccccc3)nc1=O)CCC2 to CS(=O)(=O)N(CCc1ccccc1)CC(=O)NCc1ccncc1, the “hERG current change (%, negative = inhibition) at 10uM” value rises from -38.7% to -4.22%.

Compared with COc1ccc(-n2c(=S)[nH]c3cc(C(=O)Nc4ccc(C)c(F)c4)ccc3c2=O)c(OC)c1, COc1ccc(CN2CC(=O)N(c3cc(Cl)ccc3C)C2=S)cc1OC is lower in “hERG current change (%, negative = inhibition) at 10uM” value: 19.8% for the first, 12.8% for the second.

Compared with CCCC12CN3CC(CCC)(CN(C1)C3c1ccccn1)C2=O (stereo not drawn), O=C(CCc1nc2ccccc2c(=O)[nH]1)NC1CCN(Cc2ccccc2)CC1 is higher in “hERG current change (%, negative = inhibition) at 10uM” value: -22.3% for the first, -0.782% for the second.

Compared with Cc1ccc(CN2CCC(Oc3cccc(C(=O)N(C)CCN(C)C)c3)CC2)cc1C, Cc1ccc(S(=O)(=O)N2CCN(CCc3ccccc3)CC2)c(C)c1.O=C(O)C(=O)O is lower in “hERG current change (%, negative = inhibition) at 10uM” value: 5.34% for the first, -6.72% for the second.

Going from Cc1cccc(C)c1NC(=O)CNC(=O)C1CCCC1 to Cc1ccccc1N(C(=O)CNC(=O)c1cccs1)C(C(=O)NC1CCCC1)c1ccncc1 (stereo not drawn), the “hERG current change (%, negative = inhibition) at 10uM” value falls from 2.19% to -1.58%.

First: COc1ccc(C2/C(=C(/O)c3ccccc3)C(=O)C(=O)N2c2ccccn2)c(OC)c1 (stereo not drawn)
Second: COc1ccc(OC)c(N(CC(=O)Nc2ccc(NC(C)=O)cc2)S(C)(=O)=O)c1
The “hERG current change (%, negative = inhibition) at 10uM” value of the first is higher: 10.8% for the first, 8.05% for the second.

First: CC(C)N1CCN(C(=O)c2cccc(Cl)c2)CC1.O=C(O)C(=O)O
Second: O=C(c1ccc(F)cc1)N1CCN(c2ccc([N+](=O)[O-])cc2-n2cccc2)CC1
The “hERG current change (%, negative = inhibition) at 10uM” value of the first is higher: 10.2% for the first, -65% for the second.

Going from COCCNC(=O)CN1CCC(NC(=O)C(C)(C)C)CC1 to O=C(CCNC(=O)C1CCN(S(=O)(=O)c2ccccc2)CC1)NC1CC1, the “hERG current change (%, negative = inhibition) at 10uM” value rises from -6.88% to 15.6%.

First: CSc1ccccc1NC(=O)CN(C)CC(=O)Nc1ccccc1F.O=C(O)C(=O)O
Second: C[C@H](NS(=O)(=O)c1ccccc1)C(=O)OCC(=O)NC(=O)Nc1ccc2c(c1)OCCO2
The “hERG current change (%, negative = inhibition) at 10uM” value of the first is lower: 1.1% for the first, 5.22% for the second.

First: O=[N+]([O-])c1ccc(S(=O)(=O)N2CCN=C2SCc2cccnc2)cc1
Second: NC(=O)c1ccsc1NC(=O)c1ccc(S(=O)(=O)N2CCCc3ccccc32)cc1
The “hERG current change (%, negative = inhibition) at 10uM” value of the first is lower: -68.1% for the first, 2.02% for the second.

Going from CCc1cc(OCCN2C(=O)NC(C)(C)C2=O)ccc1Cl to CCCCn1c(N)c(N(CCOC)C(=O)CSc2nnc(C)n2-c2ccc(OC)cc2)c(=O)[nH]c1=O, the “hERG current change (%, negative = inhibition) at 10uM” value rises from -1.23% to 22.1%.

Going from COC(=O)c1ccc(COC(=O)CNC(=O)CNC(=O)c2ccc(OC)cc2)cc1 to O=C(NNC1=Nc2cccc3cccc1c23)c1ccc(Br)cc1, the “hERG current change (%, negative = inhibition) at 10uM” value rises from -6.8% to 4.78%.

Compared with CCN1C(C)=C(C)S/C1=C1\SC(=S)N(NC(C)=O)C1=O, CCN1CCSc2ccc(C(=O)NCc3ccccc3Br)cc21 is lower in “hERG current change (%, negative = inhibition) at 10uM” value: 18.7% for the first, -5.94% for the second.

First: Cc1ccc(N/C=C/C(=O)c2sc(-c3ccccc3)nc2C)cc1
Second: Cc1nc(Nc2ccccc2)sc1-c1ccccc1
The “hERG current change (%, negative = inhibition) at 10uM” value of the first is higher: 7.73% for the first, 1.73% for the second.

Going from COc1ccc2c(c1)NC1(O)c3ccccc3C(=O)C21O (stereo not drawn) to CCN(c1ccc(OC)cc1)S(=O)(=O)c1ccc(-c2cc(C)no2)s1, the “hERG current change (%, negative = inhibition) at 10uM” value rises from -22.5% to -15.6%.

Going from Cc1ccc2nc(CSc3nnc4ccccn34)cc(=O)n2c1 to COc1ccc(C)cc1Nc1nc(-c2c(C)[nH]c3ccccc23)cs1, the “hERG current change (%, negative = inhibition) at 10uM” value falls from 13.2% to 2.7%.

Compared with O=C(NC1CCCC1)C(c1cccs1)N(Cc1ccco1)C(=O)c1csnn1 (stereo not drawn), Fc1ccccc1-c1nc(NCc2ccco2)c2ccccc2n1 is lower in “hERG current change (%, negative = inhibition) at 10uM” value: 4.25% for the first, -2.1% for the second.

Going from Cc1ccc(C(OCC(O)CN2CCCCC2CO)c2ccccc2)cc1 (stereo not drawn) to CC(C)c1ccc(OCc2ccc(C(=O)N3CCCC3)o2)cc1, the “hERG current change (%, negative = inhibition) at 10uM” value rises from -62.8% to -20.3%.

Compared with CC(C)c1onc(C(=O)Nc2cccc(O)c2)c1[N+](=O)[O-], CCCCOC(=O)/C(=C\c1ccc([N+](=O)[O-])o1)NC(=O)c1ccccc1 is lower in “hERG current change (%, negative = inhibition) at 10uM” value: 12.4% for the first, -19.8% for the second.

Compared with CC1CC(Nc2ccccc2)=CC(=O)O1 (stereo not drawn), NC(=O)N/N=C/c1ccc2cccc(OCc3ccccc3)c2n1 is lower in “hERG current change (%, negative = inhibition) at 10uM” value: 24.7% for the first, -12.5% for the second.

First: CCC(CO)Nc1ncnc2onc(-c3ccc(F)cc3)c12 (stereo not drawn)
Second: CC1(CCc2ccc(O)cc2)NC(=O)NC1=O (stereo not drawn)
The “hERG current change (%, negative = inhibition) at 10uM” value of the first is higher: 24.4% for the first, 0.765% for the second.

First: CCN(CC)Cc1ccc(NC(=O)c2sc3cc(Cl)ccc3c2Cl)cc1
Second: COc1cc([C@@H]2c3cc4c(cc3[C@@H](O)[C@@H](CO)[C@@H]2CO)OCO4)cc(OC)c1O[Si](C)(C)C(C)(C)C
The “hERG current change (%, negative = inhibition) at 10uM” value of the first is lower: -6.35% for the first, 4.66% for the second.

First: CC1CCc2c(sc(NC(=O)CCC(=O)O)c2C(=O)NC2CC2)C1 (stereo not drawn)
Second: OCCNc1nc(N2CCCC2)nc(N2CCCC2)n1
The “hERG current change (%, negative = inhibition) at 10uM” value of the first is higher: 18.1% for the first, -2.85% for the second.

With CN1C2C=C3C(C#N)=C(N)C(C#N)(C#N)[C@@H](c4cccs4)C3C1CC2 (stereo partly drawn) the “hERG current change (%, negative = inhibition) at 10uM” value was 5.18%.
